± gives the standard deviation. Only a part is listed here, and it is no random draw.
Tested on: MIWI (PIWIL1) piRISC loaded with L1MC piRNA (30 nt)
Experiment: pre-steady-state target cleavage rate (min^-1); MIWI and MILI are mouse PIWI proteins and EfPiwi is from a freshwater sponge; tags in brackets are library labels; higher = faster piRNA-guided slicing of the target
Details: guide: L1MC piRNA 5'p-UAACUAAAUACUAUGCAAGCUGUAGGUCCU; auxiliary factor: 500 nM mouse GTSF1
Procedure, shortened: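 In HEPES–potassium acetate buffer at 33 °C, […] transcribed, DNA-blocked target RNA library was mixed with 1 nM active affinity-purified piRISC carrying one synthetic guide, with or without 500 nM GTSF1 partner protein, for 0–8 or 0–960 min. Uncleaved targets were sequenced and normalised to depth and to weakly complementary targets; three trials were pooled and k3 was capped at 0.0001 min^-1. The pre-steady-state cleavage rate followed from a burst-and-steady-state fit.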
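Further: 1 nM active piRISC with 0.1 nM target library at 33 °C single turnover.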

Sequence | pre-steady-state target cleavage rate
AGGACCUACAGCUUGCAUAGUAGUUAGUUA | 0.671 ± 0.061
UCCUGGAUGUCAUUGCAUAGUAUUUAGUUA | 0.061 ± 0.0085
UCCUGGAUCAGCUUGCAUAGUAUUUUCAAA | 0.206 ± 0.025
UCCUCCUACUGCUUGCAUAGUAAUUAGUUA | 0.55 ± 0.026
UCCUGCUACAGCUUGCAUAGUAUUUUAGUUA | 0.817 ± 0.067
UGGACCUACAGCUUGCAUACUUUUUAGUUA | 0.0337 ± 0.0046
UCCUGCUACAGCUUGCAUAGUAUUUGAGUUA | 0.384 ± 0.033
UCCUGGAACAGCUUGCAUACUAUUUAGAUA | 0.0642 ± 0.016
UGGACCUACAGCUUGCAGAGUAUUUAGUUA | 0.87 ± 0.066
UCCUGGAUGUCCUUGGAUAGUAUUUAGUUA | 0.167 ± 0.028
UCCUGGUACUGCUUGCAUAGUAUAUAGUUA | 0.2 ± 0.038
AGGACCUACACCUUGCAUAGUUUUUAGUUA | 0.299 ± 0.028
UCCUGGUACAGCUUCAUAGUAUUUAGUUA | 0.634 ± 0.072
UCGACCUACAGCUUGCAAUCUAUUUAGUUA | 0.227 ± 0.021
UCGACCUACAGGUUGCAUAGUAUUUUGUUA | 0.715 ± 0.054
AGGACCUACAGCUUGGUUAGUAUUUAGUUA | 1.31 ± 0.068
UCCUGCUACAGCUUGCAUAGUAUAUUAGUUA | 0.891 ± 0.065
UGGAGCUACAGCUUGCAUAGUAUUUAGUAA | 0.953 ± 0.06
UCGACCUACAGUCUUGCAUAGUAUUUAGUUA | 1.16 ± 0.063
UCCUCCUACAGCUUGCAAUCUAUUUAGUUA | 0.178 ± 0.018

Sequence | pre-steady-state target cleavage rate
UCCUGGAUGUGCUAGCAUAGUAUUUUGUUA | 0.0336 ± 0.0064
UCCUCCUUCAGCUUGCAUAGUAUUUACUUA | 0.279 ± 0.03
UCCUGGAUGAGCUUGCAUAGUAUUUGAGUUA | 0.616 ± 0.07
UCGACCUUACAGCUUGCAUAGUAUUUAGUUA | 1.47 ± 0.057
UGGACCUACAGCUUGCAUAGUAUUUAGAUUA | 0.309 ± 0.03
UCCUGCUACAGCUUGCAUAGUAUUUAGCUA | 0.257 ± 0.07
UCCUGGUACAGCUUGCAAAGUAUUAAGUUA | 0.35 ± 0.049
UCCUCCUUCAGCUUGGAUAGUAUUUAGUUA | 1.19 ± 0.041
UCCUCCAUGAGCUUGCAUAGUAUUUACAAA | 0.118 ± 0.025
UCGACCUACAGCUUGCAAAGUAUUUACUUA | 0.507 ± 0.029
UGGACGAACAGCUUGCAUAGUAUUUAGUUA | 1.17 ± 0.036
UCCUGCUACAGCUUGCAUAGUUUAUAGUUA | 0.122 ± 0.023
UGGACCUACAGCUUGCAUAGUAUUUACAUA | 0.155 ± 0.021
UCCUGCAACAGCUUGCAUACUAUUUAGUUA | 0.425 ± 0.022
UCCUGGAUGUGCUUACAUAGUAUUUAGUUA | 0.3 ± 0.022
UCCACCUACAGCUUGCAAAGUAUUUACUUA | 0.351 ± 0.036
AGGACCUACAGCAUGCAUAGUAUAUAGUUA | 0.883 ± 0.073
AGGACGUACAGCUUGCAUAGUAUUUAGUAA | 0.964 ± 0.11
UGGACCUACAGCUUGCAUACUAUUUAGAUA | 0.0454 ± 0.0072
UCCUCCUACAGCAUGCAUUGUAUUUAGUUA | 0.83 ± 0.042

Same assay, conditions: guide: L1MC piRNA 5'p-UAACUAAAUACUAUGCAAGCUGUAGGUCCU; auxiliary factor: none (no GTSF1)

Sequence | pre-steady-state target cleavage rate
AGGACCUACAGCUUGCAUAGUAGUUAGUUA | 0.0316 ± 0.0066
UCCUGGAUGUCAUUGCAUAGUAUUUAGUUA | 0.00816 ± 0.0032
UCCUGGAUCAGCUUGCAUAGUAUUUUCAAA | 0.00365 ± 0.0025
UCCUCCUACUGCUUGCAUAGUAAUUAGUUA | 0.0219 ± 0.0049
UCCUGCUACAGCUUGCAUAGUAUUUUAGUUA | 0.0107 ± 0.0028
UGGACCUACAGCUUGCAUACUUUUUAGUUA | 0.00745 ± 0.0014
UCCUGCUACAGCUUGCAUAGUAUUUGAGUUA | 0.0122 ± 0.0031
UCCUGGAACAGCUUGCAUACUAUUUAGAUA | 0.00941 ± 0.0029
UGGACCUACAGCUUGCAGAGUAUUUAGUUA | 0.0374 ± 0.009
UCCUGGAUGUCCUUGGAUAGUAUUUAGUUA | 0.00666 ± 0.0021
UCCUGGUACUGCUUGCAUAGUAUAUAGUUA | 0.0161 ± 0.0041
AGGACCUACACCUUGCAUAGUUUUUAGUUA | 0.0296 ± 0.0066
UCCUGGUACAGCUUCAUAGUAUUUAGUUA | 0.00885 ± 0.0023
UCGACCUACAGCUUGCAAUCUAUUUAGUUA | 0.0028 ± 0.002
UCGACCUACAGGUUGCAUAGUAUUUUGUUA | 0.0183 ± 0.0032
AGGACCUACAGCUUGGUUAGUAUUUAGUUA | 0.0104 ± 0.0024
UCCUGCUACAGCUUGCAUAGUAUAUUAGUUA | 0.00734 ± 0.0025
UGGAGCUACAGCUUGCAUAGUAUUUAGUAA | 0.0465 ± 0.0085
UCGACCUACAGUCUUGCAUAGUAUUUAGUUA | 0.0611 ± 0.012
UCCUCCUACAGCUUGCAAUCUAUUUAGUUA | 0.00278 ± 0.002

Sequence | pre-steady-state target cleavage rate
UCCUGGAUGUGCUAGCAUAGUAUUUUGUUA | 0.00694 ± 0.003
UCCUCCUUCAGCUUGCAUAGUAUUUACUUA | 0.0168 ± 0.0032
UCCUGGAUGAGCUUGCAUAGUAUUUGAGUUA | 0.017 ± 0.0049
UCGACCUUACAGCUUGCAUAGUAUUUAGUUA | 0.091 ± 0.02
UGGACCUACAGCUUGCAUAGUAUUUAGAUUA | 0.0364 ± 0.0056
UCCUGCUACAGCUUGCAUAGUAUUUAGCUA | 0.00858 ± 0.0026
UCCUGGUACAGCUUGCAAAGUAUUAAGUUA | 0.0147 ± 0.0043
UCCUCCUUCAGCUUGGAUAGUAUUUAGUUA | 0.0358 ± 0.0057
UCCUCCAUGAGCUUGCAUAGUAUUUACAAA | 0.00268 ± 0.002
UCGACCUACAGCUUGCAAAGUAUUUACUUA | 0.0198 ± 0.0042
UGGACGAACAGCUUGCAUAGUAUUUAGUUA | 0.0856 ± 0.015
UCCUGCUACAGCUUGCAUAGUUUAUAGUUA | 0.00989 ± 0.0026
UGGACCUACAGCUUGCAUAGUAUUUACAUA | 0.0194 ± 0.0042
UCCUGCAACAGCUUGCAUACUAUUUAGUUA | 0.0344 ± 0.0091
UCCUGGAUGUGCUUACAUAGUAUUUAGUUA | 0.013 ± 0.0032
UCCACCUACAGCUUGCAAAGUAUUUACUUA | 0.0148 ± 0.0027
AGGACCUACAGCAUGCAUAGUAUAUAGUUA | 0.0258 ± 0.0058
AGGACGUACAGCUUGCAUAGUAUUUAGUAA | 0.0646 ± 0.014
UGGACCUACAGCUUGCAUACUAUUUAGAUA | 0.00776 ± 0.0025
UCCUCCUACAGCAUGCAUUGUAUUUAGUUA | 0.009 ± 0.002
